# According to patent publication US20070134261A1, “Effectors of innate immunity” (priority 2001, published 2007):
# Residues, ends and D or L forms follow the SMILES beside them. No end group written: not given here.
# Columns and labels:
# RAW 264.7 cells [1] = experiment: TNF-α induction by peptides alone in RAW 264.7 cells and bone marrow-derived macrophages; type: cell-based, mouse; conditions: peptide 40 μg/ml, 6 hours
# Experimental: The murine macrophage cell line RAW 264.7, THP-1 cells (human monocytes), a human epithelial cell line (A549), human bronchial epithelial cells (16HBEo14), and whole human blood were used. HBE cells were grown in MEM with Earle's. THP-1 cells were grown and maintained in RPMI 1640 medium. The RAW and A549 cell lines were maintained in DMEM supplemented with 10% fetal calf serum. […] DMEM was aspirated from cells grown overnight and replaced with fresh medium. After incubation of the cells with peptide, the release of chemokines into the culture supernatant was determined by ELISA (R&D Systems, Minneapolis, Minn.).
# RAW 264.7 cells [2] = experiment: Confirmation of array data: Northern blot, Western blot, Griess reagent NO (Table 59); type: cell-based, mouse; conditions: S. typhimurium LPS 100 ng/ml, S. aureus LTA 1 μg/ml, CpG DNA 1 μM, ± standard error
# Experimental: To confirm and assess the functional significance of these changes, the levels of selected mRNAs and proteins were assessed and quantified by densitometry. Northern blots using a CD14, vimentin, and tristetraprolin-specific probe confirmed similar expression after stimulation with all 3 bacterial products (Table 60). […] Western blot analysis confirmed the preferential stimulation of leukaemia inhibitory factor (LIF, a member of the IL-6 family of cytokines) by CpG (Table 59). […] The analysis was expanded to a more clinically relevant ex vivo system, by examining the ability of the bacterial elements to stimulate pro-inflammatory cytokine production in whole human blood. […] CpG also stimulated production of these cytokines, albeit to much lower levels, confirming in part the cell line data.
# [3] = test system: RAW 264.7 mouse macrophage cells; experiment: TNF-α production induced by S. aureus LTA in RAW 264.7 cells; type: cell-based
# Experimental: The ability of compounds to neutralize the stimulation of immune cells by both Gram-negative and Gram-positive bacterial products was tested. Bacterial products stimulate cells of the immune system to produce inflammatory cytokines and when unchecked this can lead to sepsis. Initial experiments utilized the murine macrophage cell line RAW 264.7, which was obtained from the American Type Culture Collection, (Manassas, Va.), the human epithelial cell line, A549, and primary macrophages derived from the bone marrow of BALB/c mice (Charles River Laboratories, Wilmington, Mass.). The cells from mouse bone marrow were cultured in 150-mm plates in Dulbecco's modified Eagle medium (DMEM; Life Technologies, Burlington, ON) supplemented with 20% FBS (Sigma Chemical Co, St. Louis, Mo.) and 20% L cell-conditioned medium as a source of M-CSF. Once macrophages were 60-80% confluent, they were deprived of L cell-conditioned medium for 14-16 h to render the cells quiescent and then were subjected to treatments with 100 ng/ml LPS or 100 ng/ml LPS+20 μg/ml peptide for 24 hours. The release of cytokines into the culture supernatant was determined by ELISA (R&D Systems, Minneapolis, Minn.). […] The samples were centrifuged for 5 min at 2000×g, the plasma was collected and then stored at −20° C. until being analyzed for IL-8 by ELISA (R&D Systems). […] Survival was monitored for 48 hours post injection.
compound,measurement,setting,value
CC[C@H](C)[C@H](NC(=O)[C@@H]1CCCN1C(=O)[C@H](CS)NC(=O)[C@H](CCCNC(=N)N)NC(=O)[C@@H](N)CC(C)C)C(=O)N[C@@H](C)C(=O)N1CCC[C@H]1C(=O)N[C@H](C(=O)N[C@H](C(=O)N1CCC[C@H]1C(=O)N[C@H](C(=O)N[C@@H](CS)C(=O)N[C@@H](CCCCN)C(=O)N[C@@H](CCCCN)C(=O)O)C(C)C)[C@@H](C)CC)C(C)C [SEQ ID NO: 6] (H-LRCPIAPVIPVCKK-OH; N-terminus and C-terminus assumed),TNF-α,RAW 264.7 cells [1],297 ± 32 pg/mL
"DLPAKRGSAPGST (Cationic peptide) [SEQ ID NO: 12, Formula B cationic peptide]",TNF-α,RAW 264.7 cells [1],299 ± 65 pg/mL
5′-TCATGACGTTCCTGACGTT-3′ (chemistry not given here) [CpG],"Relative levels, CD14 (Northern blot, densitometry)","RAW 264.7 cells [2]; 4 hr, compared to media (1.0)",1.5 ± 0.3
same,"Relative levels, Tristetraprolin (Northern blot, densitometry)","RAW 264.7 cells [2]; 4 hr, compared to media (1.0)",9.5 ± 1.5
same,"Relative levels, Vimentin (Northern blot, densitometry)","RAW 264.7 cells [2]; 4 hr, compared to media (1.0)",1.3 ± 0.07
same,"Relative levels, LIF (western blot, densitometry)","RAW 264.7 cells [2]; 24 hours, compared to media (1.0)",5.1 ± 1.6
same,"NO formed in the supernatant (nitrite, Griess reagent)","RAW 264.7 cells [2]; 24 hours, untreated 8 ± 1.5",21 ± 1.5
KWKSYAHTIMSPVRLVFHTALKPISS [SEQ ID NO: 54],TNF-α,RAW 264.7 cells [1],346 ± 86 pg/mL
CC[C@H](C)[C@H](N)C(=O)N[C@@H](CC(C)C)C(=O)N1CCC[C@H]1C(=O)N[C@@H](Cc1c[nH]c2ccccc12)C(=O)N[C@@H](CCCCN)C(=O)N[C@@H](Cc1c[nH]c2ccccc12)C(=O)N1CCC[C@H]1C(=O)N[C@@H](Cc1c[nH]c2ccccc12)C(=O)N[C@@H](Cc1c[nH]c2ccccc12)C(=O)N1CCC[C@H]1C(=O)N[C@@H](Cc1c[nH]c2ccccc12)C(=O)N[C@@H](CCCNC(=N)N)C(=O)N[C@@H](CCCNC(=N)N)C(N)=O [SEQ ID NO: 2],LTA-induced TNF-α production,[3],reduce
"KKSPIAPAIPWSR (Cationic peptide) [SEQ ID NO: 8, Formula A cationic peptide]",TNF-α,RAW 264.7 cells [1],166 ± 23 pg/mL
KWKKWAHSPRKVLTRIFHTALKPISS [SEQ ID NO: 50],TNF-α,RAW 264.7 cells [1],311 ± 144 pg/mL
KWKRGAHRFMKFLSTIFHTALKPISS [SEQ ID NO: 49],TNF-α,RAW 264.7 cells [1],324 ± 38 pg/mL
CSCC[C@H](NC(=O)[C@H](CO)NC(=O)[C@@H](NC(=O)[C@H](CCCCN)NC(=O)[C@H](Cc1ccccc1)NC(=O)[C@H](CS)NC(=O)[C@H](CO)NC(=O)[C@H](CCCNC(=N)N)NC(=O)[C@@H](N)CCCCN)C(C)C)C(=O)N[C@@H](CCCNC(=N)N)C(=O)NCC(=O)N[C@H](C(=O)N[C@@H](CO)C(=O)N[C@@H](CCCNC(=N)N)C(=O)N[C@@H](CCCNC(=N)N)C(=O)N[C@@H](CCCNC(=N)N)C(=O)N[C@@H](CS)C(=O)N[C@@H](CCCCN)C(=O)O)C(C)C [SEQ ID NO: 27] (H-KRSCFKVSMRGVSRRRCK-OH; N-terminus and C-terminus assumed),TNF-α,RAW 264.7 cells [1],203 ± 42 pg/mL
CC[C@H](C)[C@H](NC(=O)[C@H](CS)NC(=O)[C@H](CCSC)NC(=O)[C@H](CCCNC(=N)N)NC(=O)[C@@H](N)CCCNC(=N)N)C(=O)N[C@@H](CCCCN)C(=O)N[C@H](C(=O)N[C@@H](CS)C(=O)N[C@H](C(=O)N[C@@H](CCCNC(=N)N)C(=O)NCC(=O)N[C@H](C(=O)N[C@@H](CS)C(=O)N[C@@H](CCCNC(=N)N)C(=O)N[C@@H](CCCNC(=N)N)C(=O)N[C@@H](CCCCN)C(=O)N[C@@H](CS)C(=O)N[C@@H](CCCNC(=N)N)C(=O)N[C@@H](CCCCN)C(=O)O)C(C)C)C(C)C)C(C)C [SEQ ID NO: 26] (H-RRMCIKVCVRGVCRRKCRK-OH; N-terminus and C-terminus assumed),TNF-α,RAW 264.7 cells [1],281 ± 34 pg/mL
SLPIKHDRLPATS [SEQ ID NO: 15],TNF-α,RAW 264.7 cells [1],346 ± 41 pg/mL
CC[C@H](C)[C@H](NC(=O)CNC(=O)[C@H](CCCNC(=N)N)NC(=O)[C@H](CCSC)NC(=O)[C@H](C)NC(=O)[C@@H](NC(=O)[C@H](CCCNC(=N)N)NC(=O)[C@H](CCCCN)NC(=O)[C@@H](NC(=O)[C@H](CS)NC(=O)[C@@H](NC(=O)[C@@H](N)CCCNC(=N)N)[C@@H](C)O)C(C)C)C(C)C)C(=O)N[C@H](C(=O)N[C@@H](CCCNC(=N)N)C(=O)N[C@@H](CCCCN)C(=O)N[C@@H](CCCNC(=N)N)C(=O)N[C@@H](CS)C(=O)N[C@@H](CCCNC(=N)N)C(=O)O)[C@@H](C)CC [SEQ ID NO: 33] (H-RTCVKRVAMRGIIRKRCR-OH; N-terminus and C-terminus assumed),TNF-α,RAW 264.7 cells [1],196 ± 42 pg/mL
CC[C@H](C)[C@H](NC(=O)[C@H](CCCNC(=N)N)NC(=O)[C@H](CS)NC(=O)[C@H](CC(C)C)NC(=O)[C@@H](N)CC(C)C)C(=O)N[C@H](C(=O)N1CCC[C@H]1C(=O)N[C@H](C(=O)N[C@H](C(=O)N1CCC[C@H]1C(=O)N[C@@H](Cc1c[nH]c2ccccc12)C(=O)N[C@@H](CS)C(=O)N[C@@H](CCCCN)C(=O)O)[C@@H](C)CC)C(C)C)C(C)C [SEQ ID NO: 5] (H-LLCRIVPVIPWCK-OH; N-terminus and C-terminus assumed),TNF-α,RAW 264.7 cells [1],223 ± 45 pg/mL
